Measurements reported in the BET-seq Pho4 binding data (Le et al. 2018).
The list shows a part of the results. These are noisy estimates, calculated here from bound and input reads.

Molecular target: T1, Pho4 (S. cerevisiae) (UniProt P07270)
T1 sequence: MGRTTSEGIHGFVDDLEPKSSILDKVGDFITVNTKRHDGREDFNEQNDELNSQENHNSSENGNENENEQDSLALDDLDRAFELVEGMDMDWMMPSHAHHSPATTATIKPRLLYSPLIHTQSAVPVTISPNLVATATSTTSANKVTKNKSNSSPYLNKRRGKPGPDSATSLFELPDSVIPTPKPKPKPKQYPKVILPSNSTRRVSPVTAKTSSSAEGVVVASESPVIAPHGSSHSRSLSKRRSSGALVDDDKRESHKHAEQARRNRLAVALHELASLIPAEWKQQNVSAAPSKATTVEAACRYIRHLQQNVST
Test: relative binding free energy (BET-seq); higher = weaker binding
Details: reference: library average

| Sequence | relative binding free energy |
| --- | --- |
| TTAGTCACGTGACGTA | 0.17 kcal/mol |
| AGTTGCACGTGCTTAG | -0.16 kcal/mol |
| TGGTTCACGTGTTCGG | 0.34 kcal/mol |
| AGACTCACGTGGAGTT | 0.3 kcal/mol |
| GGGTTCACGTGCGCTA | 0.27 kcal/mol |
| TGATGCACGTGAGGCT | 0.02 kcal/mol |
| ATGTACACGTGGGGCT | -0.06 kcal/mol |
| CAGGTCACGTGAGGTT | 0.31 kcal/mol |
| GTTGACACGTGTTATT | 0.11 kcal/mol |
| CGAGTCACGTGAGTTT | 0.39 kcal/mol |
| TCGGGCACGTGGGCCG | -0.33 kcal/mol |
| TGGCTCACGTGGCGTA | 0.26 kcal/mol |
| TCACTCACGTGGGGGG | -0.08 kcal/mol |
| TTCCTCACGTGTGTGT | 0.19 kcal/mol |
| AATGTCACGTGGCGGT | 0.03 kcal/mol |
| GATATCACGTGGGGGT | 0.08 kcal/mol |
| GGTTTCACGTGACACG | 0.53 kcal/mol |
| GTGCTCACGTGATATG | 0.52 kcal/mol |
| AAGGTCACGTGGGCCG | -0.08 kcal/mol |
| GTTGACACGTGAATTT | 0.32 kcal/mol |
| GTGCGCACGTGAGTAT | 0.12 kcal/mol |
| GAGTTCACGTGCGAGT | 0.39 kcal/mol |
| TGTGACACGTGTAGGT | -0.03 kcal/mol |

| Sequence | relative binding free energy |
| --- | --- |
| TTTGCCACGTGCGTTT | -0.07 kcal/mol |
| ACTTACACGTGTAGGT | 0.15 kcal/mol |
| AGGATCACGTGCAGTG | 0.22 kcal/mol |
| AAGTGCACGTGAGGGC | 0.15 kcal/mol |
| TCATGCACGTGCGTGT | 0 kcal/mol |
| ATGTTCACGTGTTAGA | 0.31 kcal/mol |
| CGGGTCACGTGTATTT | 0.15 kcal/mol |
| GGTAGCACGTGATGCG | 0 kcal/mol |
| AGCTTCACGTGTGATG | 0.2 kcal/mol |
| AGTTTCACGTGAAAAG | 0.46 kcal/mol |
| TCGTTCACGTGAGTTC | 0.43 kcal/mol |
| ATTTACACGTGTAGCG | 0.22 kcal/mol |
| TTTCGCACGTGGAAGG | -0.03 kcal/mol |
| TCGTTCACGTGCATGG | 0.29 kcal/mol |
| TGCTACACGTGTAGGG | 0.07 kcal/mol |
| TGTCGCACGTGAGTAG | -0.01 kcal/mol |
| AGTGGCACGTGATTGG | 0.04 kcal/mol |
| TACTGCACGTGTATGG | -0.04 kcal/mol |
| ACGCGCACGTGGGGTG | -0.39 kcal/mol |
| GGGTTCACGTGGTCTA | 0.2 kcal/mol |
| TTGGACACGTGATCAT | 0.31 kcal/mol |
| GATCACACGTGTTGTT | 0.09 kcal/mol |
| GGTCTCACGTGGGGTG | 0.15 kcal/mol |

| Sequence | relative binding free energy |
| --- | --- |
| TTATGCACGTGTAAGG | 0.07 kcal/mol |
| GACGTCACGTGGGGAA | 0.08 kcal/mol |
| TTCTTCACGTGAAGTT | 0.38 kcal/mol |
| AGACGCACGTGTTAGG | -0.04 kcal/mol |
| TGGTTCACGTGTTGTT | 0.3 kcal/mol |
| TTCGGCACGTGTCTGT | -0.01 kcal/mol |
| ACTTGCACGTGGAAGG | -0.01 kcal/mol |
| GGACGCACGTGAGGAG | 0.1 kcal/mol |
| GGATTCACGTGGTAGA | 0.31 kcal/mol |
| GTGGTCACGTGTTATT | 0.19 kcal/mol |
| ATCGGCACGTGATTTA | -0.04 kcal/mol |
| CGTTGCACGTGGGGGT | -0.11 kcal/mol |
| TTGCGCACGTGTATTG | -0.09 kcal/mol |
| TGCATCACGTGGGGAT | 0.16 kcal/mol |
| TTCGACACGTGAATGT | 0.3 kcal/mol |
| GTTTCCACGTGATTTA | 0.33 kcal/mol |
| TGTTTCACGTGTCGAA | 0.17 kcal/mol |
| AGAGGCACGTGTTTTG | -0.13 kcal/mol |
| TTACTCACGTGATTGT | 0.23 kcal/mol |
| TGGGGCACGTGGGGAA | -0.08 kcal/mol |
| GCGGTCACGTGGATGT | 0.08 kcal/mol |
| GTAGGCACGTGAGGGG | 0.21 kcal/mol |
| TGGGACACGTGAGGCT | 0.14 kcal/mol |

| Sequence | relative binding free energy |
| --- | --- |
| CACGGCACGTGGTTGG | -0.1 kcal/mol |
| TTTTCCACGTGTTATA | 0.2 kcal/mol |
| ATGGTCACGTGCTGAG | 0.1 kcal/mol |
| AGCTTCACGTGTATTG | 0.18 kcal/mol |
| ATCGTCACGTGTAATT | 0.18 kcal/mol |
| TGCTACACGTGTTTGG | 0.09 kcal/mol |
| GGGACCACGTGGTTTG | -0.12 kcal/mol |
| AATTCCACGTGTGTGT | 0.11 kcal/mol |
| TGGCTCACGTGAGATT | 0.5 kcal/mol |
| TCTTTCACGTGGGGCG | 0.22 kcal/mol |
| ATTAGCACGTGCGTGA | -0.07 kcal/mol |
| TTAATCACGTGTCGTA | 0.09 kcal/mol |
| AGAGGCACGTGAACGG | 0.02 kcal/mol |
| TGTCTCACGTGTGGAG | 0.21 kcal/mol |
| TGTTTCACGTGTAAGA | 0.27 kcal/mol |
| TTTAACACGTGGCTGA | -0.03 kcal/mol |
| ACGGTCACGTGTGTTA | 0.1 kcal/mol |
| AGTGACACGTGGGTTG | -0.08 kcal/mol |
| AGTCGCACGTGAAGTT | 0.23 kcal/mol |
| AAAGGCACGTGGGTAT | -0.2 kcal/mol |
| AGTGGCACGTGATCGA | -0.04 kcal/mol |
| ATAGGCACGTGGCGAT | -0.23 kcal/mol |
| TGGGTCACGTGGGGTG | -0.01 kcal/mol |

| Sequence | relative binding free energy |
| --- | --- |
| TGGTTCACGTGTTCGC | 0.16 kcal/mol |
| TTTACCACGTGATGGG | 0.09 kcal/mol |
| ACGTGCACGTGTGGCG | -0.14 kcal/mol |
| GGGTGCACGTGTGGCC | 0.03 kcal/mol |
| TGTTTCACGTGTTTTT | 0.29 kcal/mol |
| GAGTGCACGTGAGTGT | 0.3 kcal/mol |
| AGATTCACGTGTATTA | 0.2 kcal/mol |
| ATTTCCACGTGGCGGG | 0.05 kcal/mol |
| GGCCTCACGTGGGTAG | 0.07 kcal/mol |
| GTAGTCACGTGCTATG | 0.14 kcal/mol |
| GAAATCACGTGGTGCG | 0.23 kcal/mol |
| GTTGGCACGTGTCGGA | 0.14 kcal/mol |
| AGGAGCACGTGTGTAT | -0.17 kcal/mol |
| CTGGCCACGTGGGCGG | -0.14 kcal/mol |
| TTCGTCACGTGAGCGG | 0.19 kcal/mol |
| GTTTACACGTGTCTTA | 0.13 kcal/mol |
| GGGTACACGTGGAGGA | 0.05 kcal/mol |
| TGTTCCACGTGAGGCG | 0.24 kcal/mol |
| AGATTCACGTGGCAGT | 0.16 kcal/mol |
| TGACGCACGTGGGTAT | -0.34 kcal/mol |
| CTATACACGTGAGTGT | 0.17 kcal/mol |
| TATCTCACGTGTATTG | 0.12 kcal/mol |
| TGCTGCACGTGTGGGC | 0.01 kcal/mol |
